Measured values reported in PubChem BioAssay AID504832 (National Center for Advancing Translational Sciences (NCATS), 2011).
Screen size: about 310,000 compounds; about 18,000 (5.8%) were called active. The shares of active, inactive and inconclusive entries below differ from those in the screen. Calls follow the shape of the dose curve; as a rule, active = well fitted inhibition curve with a large enough effect; inconclusive = small, poorly fitted or top-dose-only effect, or another doubt; inactive = no such curve, though single readings can be large or run the other way. No potency is given beside an inconclusive call; the fits are too rough.

Assay: Primary qHTS for delayed death inhibitors of the malarial parasite plastid, 48 hour incubation
Conditions: P. falciparum luciferase growth in erythrocytes; series mostly up to 28.7 µM; activity change, negative = inhibition: at the top concentration
How it was run: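 Erythrocytes infected with P. falciparum carrying an integrated firefly luciferase reporter (2% hematocrit, 0.1% parasitemia final) were exposed to compounds in RPMI 1640 with 0.5% Albumax at 37 C, 5% CO2. Growth inhibition was scored as reduced luminescence.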
% is scaled to controls: 0 for no effect and ±100 for the full control effect; potency is read from the fitted curve at half-maximal effect; tags tell the direction and shape of the fitted curve.

SMILES	activity change, negative = inhibition	Potency
Cc1ccc(NS(=O)(=O)c2cccc(C(=O)Nc3c(C)n(C)n(-c4ccccc4)c3=O)c2)cc1	inactive: 17.8%	
Cc1ccc(C)c(S(=O)(=O)N2CCC(c3nc4c(nnn4Cc4ccc5c(c4)OCCO5)c(=O)[nH]3)CC2)c1		inconclusive [inhibitor, partial curve]
CCSc1nc2ccccc2n1Cc1nc(N)nc(N(C)C)n1		inconclusive [inhibitor, single point]
CC(=O)c1ccc2c(c1)N(CCCN(C)C)c1ccccc1S2		inconclusive [inhibitor, single point]
O=C(Nc1ccccc1)Nc1nnc(Cc2ccc([N+](=O)[O-])cc2)s1		inconclusive [inhibitor, single point]
C=Cn1cc[n+](CC(=O)c2cccs2)c1		inconclusive [inhibitor, partial curve]
Cc1ccc(NC(=O)CN(C)C(=O)c2ccc(NS(=O)(=O)c3ccc4[nH]c(=O)[nH]c4c3)cc2)cc1		inconclusive [inhibitor, partial curve]
CSc1nnc2c3cc(C)ccc3n(Cc3ccccc3)c2n1	inactive: -11.5%	
CC(C)C(CCNC(=O)CC(Cc1ccccc1)c1ccco1)c1ccco1 (stereo unspecified)		inconclusive [inhibitor, single point]
COc1ccc(Cl)cc1NC(=O)CN1CCN(S(=O)(=O)c2ccc(F)cc2)CC1		active: 3.7 µM
Cc1ccc2nc(N3CCN(CCO)CC3)nc(-c3ccccc3)c2c1		inconclusive [inhibitor, single point]
Cc1cccc(C(=O)Oc2ccc(/C=N/NC(=O)c3ccncc3)cc2)c1		active: 11.7 µM
Cc1nnc(SCC(=O)Nc2ccc(-c3nc4ccccc4s3)cc2)s1	inactive: 99.4%	
CCC(C)Sc1ccc(-c2nc3cnccn3c2NC2CCCCC2)cc1 (stereo unspecified)		active: 7.38 µM
Cc1cccc(N=c2c([N+](=O)[O-])nn(-c3ccc(Cl)cc3)n2O)c1		inconclusive [inhibitor, single point]
CCOC(=O)N1CCC(NC(=O)c2cc(S(=O)(=O)NCCc3ccccc3)ccc2F)CC1		inconclusive [inhibitor, partial curve]
Cc1ccc(S(=O)(=O)c2c(N)n(Cc3ccco3)c3nc4ccccc4nc23)cc1		inconclusive [inhibitor, full curve]
Cc1ccc2sc(N(CCCN(C)C)C(=O)c3ccc(S(=O)(=O)N4CCCCCC4)cc3)nc2c1C		inconclusive [inhibitor, single point]
CCn1c(SCC(N)=O)nnc1-c1ccc2[nH]c(C)c(C)c2c1	inactive: 9.8%	
COc1ccc2[nH]c(C(=O)O)c(NS(=O)(=O)c3ccc(C)c(C)c3)c2c1	inactive: 15.4%	
CCOc1cc(/C=C/c2ccc3cccc([N+](=O)[O-])c3n2)cc(Cl)c1O		active: 9.28 µM
COC(=O)C1=C(c2ccc(OCc3ccccc3)cc2)C[C@@H]2CC[C@H]1N2C(=O)NCc1ccc(OC)c(OC)c1		inconclusive [inhibitor, partial curve]

SMILES	activity change, negative = inhibition	Potency
COc1ccccc1CNC(=O)/C=C/c1ccc(S(=O)(=O)N2CCOCC2)cc1		inconclusive [inhibitor, single point]
NC(=O)CSc1nccn1Cc1ccccc1		inconclusive [inhibitor, full curve, poor fit]
COc1ccc(C(=O)CSc2nnc(-c3ccco3)n2CC2CCCO2)cc1 (stereo unspecified)	inactive: -0.296%	
N#Cc1ccc(Cl)cc1NC(=O)CNc1cccc(S(=O)(=O)N2CCCC2)c1		inconclusive [inhibitor, single point]
Cc1cc(C)c2nc(-c3ccccn3)cc(C(=O)Nc3cc(C)on3)c2c1		inconclusive [inhibitor, single point]
COc1ccccc1C1C(C(N)=O)=C(C)Nc2nc(CCCO)nn21 (stereo unspecified)		inconclusive [inhibitor, full curve, poor fit]
COc1ccc(S(=O)(=O)N(CC(=O)NCc2ccco2)c2ccccc2)cc1OC		inconclusive [inhibitor, partial curve]
Cc1cccc(N(C(=O)c2snc(C(N)=O)c2N)C(C(=O)NCc2ccccc2)c2ccncc2)c1 (stereo unspecified)		inconclusive [inhibitor, single point]
O=C(NC1CCCCCC1)c1ccc([N+](=O)[O-])s1		inconclusive [inhibitor, single point]
Cc1cc(-n2c(C)cc(C(=O)COc3cc(F)ccc3[N+](=O)[O-])c2C)no1		active: 9.28 µM
COCC(C)N=C1NN=C(c2ccc(NC(C)=O)cc2)CS1 (stereo unspecified)	inactive: 86.3%	
Cc1cc(NC(=O)CSc2nc(=O)cc(N)n2-c2ccc(C)c(C)c2)no1		inconclusive [inhibitor, partial curve, poor fit]
COc1cccc(Cn2c(=O)sc3ccccc3c2=O)c1	inactive: 69.5%	
O=C(N/N=C/c1cc([N+](=O)[O-])ccc1Cl)c1ccc2nc[nH]c2c1		inconclusive [inhibitor, single point]
Cc1ccc(-c2csc(N3CCC[C@@H]3C(=O)NCCn3c(C(F)(F)F)nc4ccccc43)n2)cc1		inconclusive [inhibitor, full curve, poor fit]
Cc1cc(S(=O)(=O)N2CCCC2)ccc1OCC(=O)Nc1ccc(C(N)=O)cc1		inconclusive [inhibitor, single point]
O=C(Nc1ccccc1)OCc1ccccn1	inactive: 89.2%	
COc1ccccc1CN1CCN(Cc2cc(OC)c(OC)cc2OC)CC1		inconclusive [inhibitor, full curve, poor fit]
COc1cc(C(=S)N2CCCC2)cc(OC)c1OC	inactive: 32.2% [at 1.15 µM]	
Cc1cccc2cc(C(c3nnnn3Cc3ccccc3)N3CCN(c4ccccc4)CC3)c(=O)[nH]c12 (stereo unspecified)		inconclusive [inhibitor, partial curve, poor fit]
CCc1ccc2[nH]cc(S(=O)(=O)c3ccc(C)c(C)c3)c(=O)c2c1	inactive: 0.302%	
CC1CCC(C(C)C)C(OCC(O)CNC(C)c2ccccc2)C1 (stereo unspecified)		inconclusive [inhibitor, partial curve, poor fit]

SMILES	activity change, negative = inhibition	Potency
N#CCOC(=O)C1CCN(S(=O)(=O)c2ccc3c(c2)OCCO3)CC1		inconclusive [inhibitor, single point]
Cc1cc(C)cc(N2C(=O)NC(=O)/C(=C\c3cccn3-c3ccc(Cl)cc3)C2=O)c1		inconclusive [inhibitor, partial curve, poor fit]
Cc1cc(-c2ccccc2)cc(C)[n+]1Cc1ccccc1		active: 0.738 µM
Cc1sc2ncnc(N3CCC(C(=O)Nc4ccc(S(N)(=O)=O)cc4)CC3)c2c1C		inconclusive [inhibitor, single point]
CC(=O)N=c1sccn1CC(O)c1ccccc1 (stereo unspecified)	inactive: -23.7% [at 0.00184 µM]	
Cc1cccc(C)c1NC(=O)CS(=O)CC(=O)NCCCc1ccccc1 (stereo unspecified)		inconclusive [inhibitor, partial curve, poor fit]
CCCCn1c(-c2cccs2)nc2oc3ccccc3c(=O)c2c1=O		inconclusive [inhibitor, full curve, poor fit]
Cn1cc(C(=O)NC2CCCCCCC2)c(=O)c2cc(S(=O)(=O)N3CCCC3)ccc21		inconclusive [inhibitor, full curve, poor fit]
CC(C)(C)c1ccc(S(=O)(=O)Nc2ccc(C(=O)N3CCCC3)cc2)cc1		inconclusive [inhibitor, partial curve]
Cc1nc(N)c(Cc2ccccc2F)c(N)n1		inconclusive [inhibitor, single point]
CN(C)CCOC(C)(c1ccccc1)c1ccccn1 (stereo unspecified)		inconclusive [inhibitor, partial curve, poor fit]
Cc1c(C(=O)N2CC(C)OC(C)C2)[nH]c2ccc(Br)cc12 (stereo unspecified)		inconclusive [inhibitor, partial curve, poor fit]
COc1ccc(OC)c(-c2cc(C(=O)Nc3cc(C)n(Cc4ccc(Cl)cc4)n3)no2)c1		active: 2.08 µM
O=C(CCn1nnnc1CN1CCOCC1)N1CCC(c2cccc(Cl)c2)C1 (stereo unspecified)	inactive: 0.698%	
CC(Oc1ccc(F)cc1F)C(=O)/C=C/N(C)C (stereo unspecified)		inconclusive [inhibitor, single point]
Cc1cccc(C)c1-n1c(C)cc(/C=N/NC(=O)CSc2ncccn2)c1C		inconclusive [inhibitor, partial curve, poor fit]
Cc1cc(C)n(-c2nnc3n2N=C(c2c[nH]c4ccccc24)CS3)n1		inconclusive [inhibitor, partial curve]
Cc1ccc(CN(CC2CCCO2)C(=O)CN2C(=O)C(C(C)C)Oc3ccccc32)o1 (stereo unspecified)		inconclusive [inhibitor, single point]
CCOC(=O)N1CCN(C(=O)c2oc3ccc(S(=O)(=O)N4CCCCCC4)cc3c2C)CC1		active: 11.7 µM
COc1ccc(CN(C)Cc2nc3scc(-c4ccccc4)c3c(=O)[nH]2)cc1OC		inconclusive [inhibitor, single point]
COC(=O)c1ccccc1NC(=O)N1CSC[C@H]1C(=O)OC	inactive: 18.5%	
COC(=O)c1scc(S(=O)(=O)C(C)C)c1N/N=C(\C#N)C(=O)c1ccc(Cl)cc1		inconclusive [inhibitor, partial curve, poor fit]
